# According to paper PMC4336329 (PLoS ONE, 2015):
# Screen size: about 310,000 compounds; about 2,200 (0.71%) showed an effect of 50% or more. The effect is printed as a negative number. This is one part of the list.
# Biological target: human ether-à-go-go-related gene (hERG) potassium channel (human, UniProt Q12809)
# Experiment: primary screen, population patch clamp on CHO cells stably expressing hERG
# human ether-à-go-go-related gene (hERG) potassium channel, sequence (Q12809 whole entry, looked up): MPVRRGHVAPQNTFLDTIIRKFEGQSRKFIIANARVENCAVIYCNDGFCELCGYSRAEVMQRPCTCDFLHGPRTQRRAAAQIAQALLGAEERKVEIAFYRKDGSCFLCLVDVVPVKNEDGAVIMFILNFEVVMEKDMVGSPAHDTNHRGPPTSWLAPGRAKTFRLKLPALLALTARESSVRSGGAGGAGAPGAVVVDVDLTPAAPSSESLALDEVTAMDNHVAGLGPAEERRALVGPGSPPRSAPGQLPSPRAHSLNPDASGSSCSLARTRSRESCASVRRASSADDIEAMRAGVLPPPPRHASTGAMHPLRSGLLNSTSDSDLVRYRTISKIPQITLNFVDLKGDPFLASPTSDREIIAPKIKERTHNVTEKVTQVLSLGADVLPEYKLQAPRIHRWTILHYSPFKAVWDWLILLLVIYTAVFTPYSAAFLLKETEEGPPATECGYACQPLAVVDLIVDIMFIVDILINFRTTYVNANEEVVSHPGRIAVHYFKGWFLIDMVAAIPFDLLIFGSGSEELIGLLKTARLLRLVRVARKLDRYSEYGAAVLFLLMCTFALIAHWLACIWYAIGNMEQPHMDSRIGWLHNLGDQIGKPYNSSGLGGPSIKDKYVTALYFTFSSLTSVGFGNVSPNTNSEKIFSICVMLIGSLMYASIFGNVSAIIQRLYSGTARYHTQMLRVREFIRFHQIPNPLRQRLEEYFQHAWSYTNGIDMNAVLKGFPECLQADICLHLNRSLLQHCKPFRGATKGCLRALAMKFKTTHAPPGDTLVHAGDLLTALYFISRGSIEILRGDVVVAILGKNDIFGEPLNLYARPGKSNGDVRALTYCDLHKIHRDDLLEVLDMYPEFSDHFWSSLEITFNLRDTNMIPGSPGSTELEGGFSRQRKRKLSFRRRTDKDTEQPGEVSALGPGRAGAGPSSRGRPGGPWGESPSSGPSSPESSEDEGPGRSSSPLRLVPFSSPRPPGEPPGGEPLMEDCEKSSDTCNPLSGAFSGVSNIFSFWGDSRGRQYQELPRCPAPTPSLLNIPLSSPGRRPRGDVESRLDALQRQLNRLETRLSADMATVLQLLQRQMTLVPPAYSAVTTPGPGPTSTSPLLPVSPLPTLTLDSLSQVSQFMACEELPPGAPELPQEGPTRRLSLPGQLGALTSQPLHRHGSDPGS
row,Structure (SMILES),"hERG current change (%, negative = inhibition) at 1uM"
1,COc1cc(OC)c(C2Oc3nc(SC)nnc3-c3ccccc3N2C(C)=O)cc1OC (centres unmarked),-3.42%
2,CCCc1cc(=O)oc2c(CN3CCCC3)c(O)ccc12,-9.4%
3,CCc1nnc(NC(=O)c2ccc(C)o2)s1,-2.32%
4,Cn1c(=O)c2c(nc(Sc3ccccc3N)n2C)n(C)c1=O,13.2%
5,COc1ccccc1CCNC(=O)C(=O)Nc1cc2c3c(c1)C(C)C(=O)N3CCC2 (centres unmarked),6.58%
6,CCOCCn1c(-c2ccccc2)nc2ccccc21,13.9%
7,O=C(COc1ccc(S(=O)(=O)Nc2ccccc2)cc1)N1CCOCC1,13.4%
8,COc1cc(OC)c2c(-c3ccccc3)cc(=O)oc2c1C(CCN1CCCCC1)c1ccc2c(c1)OCO2 (centres unmarked),3.03%
9,Cc1cc(NC(=O)CCSc2nc(-c3ccco3)cc(C(F)(F)F)n2)no1,8.23%
10,O=C(O)c1cccc(CSc2nnc(COc3ccccc3)o2)c1,-4.61%
11,CCc1ccc(NC(=O)COc2ccc(Br)cn2)cc1,9.73%
12,Cc1cc(NC(=O)C(C)SCC(=O)Nc2ccc(Br)cc2Br)no1 (centres unmarked),5.84%
13,COc1cc(C(=O)O)ccc1O,22.1%
14,Cc1cc(C(=O)OCC(N)=O)c(C)n1-c1ccccc1,0.68%
15,S=C(Nc1ccccn1)NC1CCCC1,0.746%
16,C/C(=N\Nc1cc(-c2ccccc2)nc(-c2ccc(Br)cc2)n1)c1cccc(N)c1,11.4%
17,COc1ccc(C(=O)NC(=S)Nc2ccc(S(=O)(=O)Nc3cc(OC)nc(OC)n3)cc2)cc1,13.7%
18,CCSc1cc(N2CCCC2)nc(-c2ccc(F)cc2)n1,-7.38%
19,CN(C)CCN(C(=O)COc1ccc(Cl)cc1)c1nc2cc3c(cc2s1)OCO3,0.848%
20,CCOc1ccc(C(=O)NC(=S)N(Cc2ccccc2)Cc2ccccc2)cc1,-3.6%
21,COc1ccc(CN2C(=O)CNC2=S)cc1,14.3%
22,COc1cc(OC)cc(C(=O)N[C@H](C(=O)OCC(=O)N2CCc3ccccc32)C(C)C)c1,3.07%
23,CS(=O)(=O)N1CCC(C(=O)N2CCC(Cc3ccccc3)CC2)CC1,2.65%

row,Structure (SMILES),"hERG current change (%, negative = inhibition) at 1uM"
1,CC(C)C(NS(=O)(=O)c1ccc2c(c1)OCCO2)C(=O)NCCc1ccccn1 (centres unmarked),9.37%
2,Clc1cc(Cl)cc(CN2CCSCC2)c1,9.61%
3,O.O=c1ccc2cc(OC3O[C@H](CO)[C@@H](O)[C@H](O)[C@H]3O)c(O)cc2o1 (some centres unmarked),-12.6%
4,CC1=CSC2=NC(=O)/C(=C/c3cccc(OC(=O)c4ccco4)c3)C(=N)N12,4.68%
5,O=C1CCCN1CCCN1C(=O)N[C@@H](Cc2ccccc2)C1=O,18.4%
6,COc1ccccc1CCNC(=O)c1ccc(Br)s1,14%
7,O=C(CC12CC3CC(CC(C3)C1)C2)NC(Cc1ccccc1)C(=O)O (centres unmarked),21.5%
8,c1cncc(Oc2cccc(Oc3cccnc3)c2)c1,7.86%
9,COc1ccc(OC)c(NC(=O)CCNS(=O)(=O)c2cccc3nonc23)c1,11.8%
10,C/C(N)=C(/C#N)C(=O)CSc1nc2cc(Cl)ccc2s1,-7.65%
11,COc1ccc(CNC(=O)C(=O)N2CCC3(CC2)OCCN3S(=O)(=O)c2ccc(C)cc2)cc1,2.1%
12,O=C(NCCCNC(=O)c1cc(Cl)ccc1Cl)c1ccco1,12.3%
13,Cc1ccccc1OCc1nnc(SCC(=O)O)n1Cc1ccccc1,4.45%
14,COc1ccc(C(=O)CN2C(=O)NC3(CCCc4ccccc43)C2=O)cc1 (centres unmarked),4.43%
15,CCCCCCCCCCC[C@@H](C[C@@H]1OC(=O)[C@H]1CCCCCC)OC(=O)[C@H](CC(C)C)NC=O,5.12%
16,O=[N+]([O-])c1[nH]cnc1/C=C/c1ccccc1,11.9%
17,Cc1ccc(S(=O)(=O)Cn2nnnc2C(C(C)C)N2CCC(C(N)=O)CC2)cc1 (centres unmarked),16.9%
18,COc1cc(/C=C(/C#N)c2nc3ccccc3c(=O)[nH]2)ccc1O,11.6%
19,Cc1cc(C(=O)O)ccc1-n1c(C)cc(/C=C2\SC(=O)NC2=O)c1C,14.4%
20,O=C(Cn1c(=O)cnc2ccccc21)N1CCCc2ccccc21,10.2%
21,O=C(c1ccc2c(c1)N(Cc1ccccc1)CCS2)N1CCOCC1,9.06%
22,Cc1ccc(C(=O)Nc2ccccc2C(=O)Nc2ccccn2)cc1Cl,9.67%
23,Cc1ccc(SCCN2CCN(Cc3ccccc3)CC2)cc1.O=C(O)C(=O)O,10.7%

row,Structure (SMILES),"hERG current change (%, negative = inhibition) at 1uM"
1,CCC1(c2ccccc2)NC(=O)N(CC(=O)N2CC(=O)Nc3ccccc32)C1=O (centres unmarked),12.8%
2,O=S(=O)(c1cc(Cl)ccc1Cl)N1CCc2ccccc21,1.08%
3,COC(C(=O)NCc1ccccc1C)c1ccccc1 (centres unmarked),13.7%
4,CC1CCCCC12NC(=O)N(CC(=O)N1CCN(S(=O)(=O)Cc3ccccc3)CC1)C2=O (centres unmarked),1.74%
5,COc1ccc(-c2noc(C3CCCN(C(=O)c4cccs4)C3)n2)cc1 (centres unmarked),2.69%
6,O=C(CC(c1ccccc1)c1cc(Cl)ccc1O)NCCCN1CCOCC1 (centres unmarked),-3.79%
7,COc1cc(NC(=O)C2CCCCC2)c2ncccc2c1,-0.263%
8,COc1ccc(/C=N/NC(=O)c2ccc(O)cc2)cc1CN1CCCc2ccccc21,11.7%
9,N#CCP(=S)(c1ccccc1)c1ccccc1,-0.821%
10,Cc1cc(NC(=O)c2ccccc2NS(=O)(=O)c2c(C)c(C)cc(C)c2C)no1,6.38%
11,COc1ccc(OC)c(NC(=O)NNC(=O)COc2ccc([N+](=O)[O-])cc2)c1,7.62%
12,COc1cc2c(cc1OC)C(c1ccc3c(c1)OCO3)CC(=O)N2 (centres unmarked),-9.27%
13,Cc1occc1-c1nnc(SCC(=O)NC(C)(C)C)n1CC(C)C,11.8%
14,O=C(NNc1ncccc1-n1cccc1)c1ccc(Cl)cc1,0.218%
15,O=C(CCS(=O)(=O)c1ccc(Br)cc1)NCCc1ccccc1,7.11%
16,Cc1cccc(NC(=O)/C(C#N)=C/c2ccc(F)cc2)n1,24.4%
17,COc1ccccc1N(CC(=O)NC1CCCC1)C(=O)CNC(=O)c1cccs1,18.2%
18,CCC(NC(=O)OCc1ccccc1)C(=O)Oc1ccc2ccc(=O)oc2c1 (centres unmarked),18.8%
19,COc1cccc(-c2nn(-c3ccccc3)cc2C(=O)NCC(=O)O)c1,12.9%
20,N#Cc1ccc(CN2CCN(c3ccc(S(=O)(=O)N4CCCC4)cn3)CC2)cc1,-2%
21,Cc1ccc(Cl)cc1NC(=S)N1CCC(c2ccccc2)C1 (centres unmarked),10.1%
22,Cc1nnc(NC(=O)Nc2cccc(Cl)c2)s1,1.44%
23,Cn1c(SCC(=O)N/N=C/c2ccc([N+](=O)[O-])s2)nnc1-c1ccc(Cl)cc1,-0.743%

row,Structure (SMILES),"hERG current change (%, negative = inhibition) at 1uM"
1,Cc1ccc(-n2nnnc2-c2cnc3cc4c(cc3c2C)OCO4)cc1,9.78%
2,COc1cccc(C2CNC3(CCCC(C)C3)c3[nH]c4ccccc4c32)c1OC.Cl (centres unmarked),8.05%
3,CC(=O)Nc1ccc2nc(NC(=O)COc3cccc(C)c3)sc2c1,4.41%
4,O=C(/C(N=Nc1cccc([N+](=O)[O-])c1)=C(/O)c1ccc(Br)cc1)C(F)(F)F,16.2%
5,COc1cc(OC)cc(C(=O)Nc2ccc(NC(=O)c3ccco3)c(C)c2)c1,8.37%
6,COCCNC(=S)N/N=C(\C)c1ccccc1F,11.8%
7,COc1ccc(NC(=O)COC(=O)c2ccc(S(=O)(=O)N(C)c3ccccc3OC)cc2)cc1OC,24.4%
8,COc1ccc2c(c1)-c1ccccc1S(=O)(=O)N2C,-2.81%
9,O=C(COc1ccc(Cl)cc1)OCC(=O)N1CCCc2ccccc21,15.6%
10,Cc1ccc(C)c(C2=NNC(=O)CC2)c1,9.5%
11,O=C(c1cc(COc2ccc(F)cc2Cl)on1)N1CCCC(c2ccccc2)C1 (centres unmarked),9.53%
12,COc1ccccc1/C=N/NC(=O)c1cccc(NC(=O)c2ccccc2C)c1,3.76%
13,Cc1nc2c(C#N)cnn2c2c1CCN(Cc1ccccc1)N2C,4.83%
14,COc1ccc(C(=O)NCC(C)CN(C)C)cc1 (centres unmarked),1.94%
15,CC(C)CC(NC(=O)C(CC(C)C)NC(=O)OC(C)(C)C)C(=O)O (centres unmarked),15.5%
16,Cc1onc(-c2c(F)cccc2Cl)c1C(=O)NNC(=O)C1CCN(Cc2cccc(F)c2)CC1,8.71%
17,CCCN1CCC(NC(=S)Nc2ccc(C(=O)OCC)cc2)CC1,4.88%
18,CN(C(=O)CO/N=C/c1ccc(Cl)cc1)c1ccccc1,-4.09%
19,CCCC(=O)c1ccc(N2CCN(C(=O)c3ccccc3Br)CC2)c(F)c1,9.52%
20,COc1ccc2nc(SCC(=O)NC3CCCC3)c(C)cc2c1,1.89%
